Data from publication PMC3183054.
Positions count from the first letter of the chain named. Results are given in words; binding and its absence hold for the method and conditions named. Binding seen in cells or lysates may run through a third protein. Some results given as binding are weak or reduced against the parent protein; the word gives no strength. Tags and fused reporters may be left off the sequences shown.

Chains of the proteins cited; added tags and fusions are not shown.
UniProt Q93034: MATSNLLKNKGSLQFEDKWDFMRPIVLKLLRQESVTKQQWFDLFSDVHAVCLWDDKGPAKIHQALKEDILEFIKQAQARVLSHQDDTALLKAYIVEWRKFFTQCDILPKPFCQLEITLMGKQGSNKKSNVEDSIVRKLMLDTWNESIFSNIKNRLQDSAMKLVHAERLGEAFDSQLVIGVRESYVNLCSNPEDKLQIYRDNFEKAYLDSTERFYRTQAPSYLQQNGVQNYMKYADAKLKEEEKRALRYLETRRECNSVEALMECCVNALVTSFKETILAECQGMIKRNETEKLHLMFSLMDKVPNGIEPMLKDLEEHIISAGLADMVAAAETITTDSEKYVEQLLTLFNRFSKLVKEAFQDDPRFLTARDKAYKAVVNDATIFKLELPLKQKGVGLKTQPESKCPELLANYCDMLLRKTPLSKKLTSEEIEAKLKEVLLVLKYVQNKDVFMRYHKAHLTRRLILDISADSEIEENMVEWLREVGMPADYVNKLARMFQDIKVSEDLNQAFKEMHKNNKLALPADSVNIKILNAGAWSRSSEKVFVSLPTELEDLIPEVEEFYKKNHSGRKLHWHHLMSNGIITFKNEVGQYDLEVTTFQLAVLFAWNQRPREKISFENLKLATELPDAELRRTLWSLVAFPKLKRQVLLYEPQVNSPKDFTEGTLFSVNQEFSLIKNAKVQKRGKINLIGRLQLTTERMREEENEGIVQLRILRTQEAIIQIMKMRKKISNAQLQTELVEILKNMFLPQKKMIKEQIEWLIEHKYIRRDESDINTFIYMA
UniProt Q15370: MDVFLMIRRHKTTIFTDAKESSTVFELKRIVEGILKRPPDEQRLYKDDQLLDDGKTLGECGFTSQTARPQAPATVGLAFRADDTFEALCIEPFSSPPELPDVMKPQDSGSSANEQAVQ
UniProt Q9UBF6: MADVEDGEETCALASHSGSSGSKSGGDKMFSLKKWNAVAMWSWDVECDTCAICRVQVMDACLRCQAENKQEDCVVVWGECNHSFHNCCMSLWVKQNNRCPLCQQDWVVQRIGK

B1: Myc-Growth Hormone Receptor (receptor, UniProt P16310 19-638)
chain: FPGSGATPATLGKASPVLQRINPSLRESSSGKPRFTKCRSPELETFSCYWTEGDDHNLKVPGSIQLYYARRIAHEWTPEWKECPDYVSAGANSCYFNSSYTSIWIPYCIKLTTNGDLLDEKCFTVDEIVQPDPPIGLNWTLLNISLPGIRGDIQVSWQPPPSADVLKGWIILEYEIQYKEVNETKWKTMSPIWSTSVPLYSLRLDKEHEVRVRSRQRSFEKYSEFSEVLRVTFPQMDTLAACEEDFRFPWFLIIIFGIFGVAVMLFVVIFSKQQRIKMLILPPVPVPKIKGIDPDLLKEGKLEEVNTILGIHDNYKPDFYNDDSWVEFIELDIDDADEKTEESDTDRLLSDDQEKSAGILGAKDDDSGRTSCYDPDILDTDFHTSDMCDGTSEFAQPQKLKAEADLLCLDQKNLKNSPYDASLGSLHPSITLTMEDKPQPLLGSETESTHQLPSTPMSSPVSLANIDFYAQVSDITPAGGVVLSPGQKIKAGLAQGNTQLEVAAPCQENYSMNSAYFCESDAKKCIAAAPHMEATTCVKPSFNQEDIYITTESLTTTARMSETADTAPDAEPVPDYTTVHTVKSPRGLILNATALPLPDKKKFLSSCGYVSTDQLNKIMQ

Tests used:
[1] = molecular target: T1, FLAG-SOCS2 with a point mutation in the SOCS-box at L163P (UniProt O35717); experiment: co-IP; HEK293T transfected with Elongin B, Elongin C, Myc-Cullin5 and FLAG-SOCS2 wild type or mutant; FLAG-SOCS2 precipitated with FLAG-conjugated agarose beads 1 h at 4 °C from lysate (50 mM Tris HCl pH 7.5, 150 mM NaCl, 5 mM EDTA, 0.5% Igepal-40); Western blot of the precipitates
T1 sequence: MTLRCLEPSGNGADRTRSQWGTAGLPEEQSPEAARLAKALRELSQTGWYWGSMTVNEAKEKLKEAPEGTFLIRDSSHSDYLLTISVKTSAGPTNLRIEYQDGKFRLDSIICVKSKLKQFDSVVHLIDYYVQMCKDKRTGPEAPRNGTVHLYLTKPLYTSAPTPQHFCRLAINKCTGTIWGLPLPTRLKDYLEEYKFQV

[2] = molecular target: T2, FLAG-SOCS2 lacking the 39 amino acid C-terminus corresponding to the SOCS-box (UniProt O35717); experiment: as above
T2 sequence: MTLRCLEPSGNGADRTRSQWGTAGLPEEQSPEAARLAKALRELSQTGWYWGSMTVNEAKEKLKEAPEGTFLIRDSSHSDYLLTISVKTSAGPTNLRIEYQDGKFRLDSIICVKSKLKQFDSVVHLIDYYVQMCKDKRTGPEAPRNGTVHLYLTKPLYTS

[3] = molecular target: T3, FLAG-SOCS2 with a point mutation in the SOCS-box at C167F (UniProt O35717); experiment: as above
T3 sequence: T1 sequence with P163L, C167F

[4] = molecular target: T4, FLAG-SOCS2 lacking the 37 amino acid N-terminus (UniProt O35717); experiment: as above
T4 sequence: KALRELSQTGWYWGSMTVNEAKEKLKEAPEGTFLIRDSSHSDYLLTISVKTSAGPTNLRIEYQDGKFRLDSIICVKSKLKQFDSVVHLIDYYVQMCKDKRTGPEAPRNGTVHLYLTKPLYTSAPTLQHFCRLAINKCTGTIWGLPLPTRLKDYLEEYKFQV

[5] = molecular target: T5, FLAG-SOCS2 (suppressor of cytokine signalling 2, wild type) (UniProt O35717); experiment: as above
T5 sequence: T1 sequence with P163L

[6] = molecular target: T6, FLAG-SOCS2 with a point mutation in the SH2-domain at R73E (UniProt O35717); experiment: as above
T6 sequence: T1 sequence with R73E, P163L

[7] = molecular target: T2, FLAG-SOCS2 lacking the 39 amino acid C-terminus corresponding to the SOCS-box; experiment: co-IP; HEK293T transfected with Elongin B/C, FLAG-SOCS2 or a mutant and Myc-GHR; cells starved and treated with GH for 0 or 10 minutes before lysis; immunoprecipitation as in the methods, GHR detected with anti-Myc antibody
[8] = molecular target: T5, FLAG-SOCS2 (suppressor of cytokine signalling 2, wild type); experiment: as above
[9] = molecular target: T6, FLAG-SOCS2 with a point mutation in the SH2-domain at R73E; experiment: as above

Molecule | binding [1] | binding [2] | binding [3] | binding [4] | binding [5] | binding [6] | binding [7] | binding [8] | binding [9]
Myc-Cullin5 (from UniProt Q93034 1-780) | no binding | no binding | no binding | binds | binds | binds | – | – | –
Elongin B (from UniProt Q15370 1-118) | no binding | no binding | no binding | binds | binds | binds | – | – | –
Ring-box protein 2 (Rbx2) (from UniProt Q9UBF6 1-113) | no binding | no binding | no binding | binds | binds | binds | – | – | –
B1 | – | – | – | – | – | – | binds | binds | binds weakly
